System: HepG2 human hepatocytes
Assay: AMSAcrine degradation by HepG2 cells (OD435 of supernatant)
Details: 15 μM AMSAcrine, 4 mM L-NAME or 100 μM L-NIL 6 hours prior

Compound | effect of NOS inhibitor on AMSAcrine degradation by hepatocytes
CC(=N)NCCCC[C@H](N)C(=O)O [L-NIL] | greatly compromised
COC(=O)[C@@H](N)CCCNC(=N)N[N+](=O)[O-] [L-NAME, N G -nitro-L-arginine methyl ester] | greatly compromised
